Out of some 150,000 compounds screened, about 540 (0.36%) showed an effect of 50% or more. The list shows a part of the results.

The experiment concerns Plasmodium falciparum. The experiment can be described thus: Primary screen in NF54 nanoGlo assay, in single point, at 2uM, 72h; a lower Z score goes with more inhibition. To be noted: timepoint 72 hour. Format: functional, Erythrocyte.
Take `CCO[C@@H](C)C(=O)NCc1ccncc1`: the “% Inhibition” value is recorded as -6% and the Z score amounted to 0.68.
For `CCc1ccc(CN2CC[C@@](O)(CO)C2)s1` the same measures were -11% and 1.75.
For `CN(C)C(=O)NCc1cc2n(n1)CCCN(Cc1ccc3occc3c1)C2` the same measures were 10% and -1.36.
Turning to `COc1cc(OC)cc([C@H]2CCN(C(=O)c3ccoc3)C2)c1`, the “% Inhibition” value is -1% and the Z score came out at 0.11.
As to `COc1ccc(-c2noc(CN(C)C(C)C)n2)nn1`, the “% Inhibition” value is listed as -3% and the Z score worked out at 0.55.
For `COc1cc(NC(=O)N2CC[C@H](c3nnc(C)o3)C2)cc(OC)c1`, the “% Inhibition” value amounted to 33% and the Z score is -3.78.
The corresponding values for `CC[C@](C)(NCC#Cc1ccc(C(F)(F)F)cc1)C(N)=O` are 36% and -4.06.
For `N#Cc1nnc2ccccc2c1Oc1ccc2ncccc2c1` the same measures were -12% and 2.3.
The corresponding values for `CC[C@H](NCc1n[nH]c(N)n1)C1CCCC1` are 2% and -0.36.
With `C[C@H](Oc1ccccc1)C(=O)N1CCC(Oc2cccc3cccnc23)CC1`, the “% Inhibition” value was -9% and the Z score is 1.73.
The corresponding values for `CCN1CC[C@@]2(CCC1=O)CN(C(=O)c1ccc[nH]1)CCN2C` are -16% and 1.45.
As for `Cc1ccc(-c2nn(C)cc2C(=O)Nc2nccnc2C(C)C)o1`, the “% Inhibition” value is recorded as -1% and the Z score was 0.14.
Take `COc1ccc(-c2cc(CN(CC(C)C)C(=O)c3ccco3)no2)c(OC)c1`: the “% Inhibition” value is -9% and the Z score came to 1.13.
The corresponding values for `Cc1cnccc1CNC(=O)COC1CCCCC1C` (stereo unspecified) are -13% and 2.24.
For `Cc1oc(-c2ccc(-c3ccccc3)cc2)nc1CN1CCCC[C@@H]1CCCO` the same measures were -10% and 1.58.
For `CN1CC2(C[C@H]1c1noc(-c3ccccn3)n1)CN(C(=O)CCC1CCCC1)C2` the same measures were -15% and 1.7.
Take `O=S1(=O)CCN(c2ccccc2-c2nc(-c3cccnn3)no2)CC1`: the “% Inhibition” value is listed as -15% and the Z score worked out at 2.56.
For `CC1CCCC(NC(=O)C(C)N2CCCC(Cn3cncn3)C2)C1C` (stereo unspecified) the same measures were 1% and -0.12.
Turning to `CN(Cc1nccn1Cc1ccccc1)C(=O)CCC(=O)Nc1nncs1`, the “% Inhibition” value was -8% and the Z score is given as 1.29.
For `COCCCN(Cc1ccnc(C(C)C)n1)C1CCN(C)CC1` the same measures were -8% and 1.01.
The corresponding values for `CCn1nc(C)c(C(=O)N2C[C@H]3CC[C@@H](C2)N(CC2CC2)C3)c1C` are 0% and 0.03.
As to `CO[C@H]1CN(c2ncnc3ccccc23)C[C@@H]1O`, the “% Inhibition” value was -4% and the Z score worked out at 0.68.
For the compound `COCCC[C@H]1CCCCN1C(=O)c1ccc(OC)c(N2CCOCC2)c1`, the “% Inhibition” value was -8% and the Z score turned out to be 0.99.
On to `CC(C)(C)c1cc(=O)n(Cc2cccc(C(=O)Nc3ccccc3)c2)cn1`, for which the “% Inhibition” value was determined as 3% and the Z score was -0.32.
As for `CCN(CC)CC(=O)Nc1nc(C)ns1`, the “% Inhibition” value was -10% and the Z score amounted to 1.27.
Consider `Cc1nn(CC(F)F)cc1C(=O)N(C)[C@H]1CCN(C)C1=O`, for which the “% Inhibition” value is reported as -4% and the Z score was determined as 0.53.
Regarding `Cn1cc(CN[C@H]2[C@H](O)[C@H](O)C[C@@H]2c2ccc(C(F)(F)F)cc2)cn1`, the “% Inhibition” value was -12% and the Z score came out at 1.49.
As to `C[C@@]1(CO)CN(Cc2ccccc2)C[C@@H]2CN(C(=O)C3CCCCC3)CCN21`, the “% Inhibition” value is on record as -16% and the Z score stood at 2.43.
The corresponding values for `O=C(NCc1nccnc1-c1ccco1)c1ccco1` are -2% and 0.42.
For `O=C(Nc1ccc2ccccc2c1)N(Cc1ccccc1)c1ccccc1` the same measures were 3% and -0.6.
In the case of `CN1c2ccccc2N(C2CCN(C(=O)c3cccc(-n4cnnn4)c3)CC2)S1(=O)=O`, the “% Inhibition” value is on record as -5% and the Z score was 0.55.
The corresponding values for `CC1CCCCC1NC(=O)c1cc2sccc2n1Cc1ccc(F)cc1` (stereo unspecified) are -3% and 0.59.
The corresponding values for `O=S(=O)(Cc1noc(C2CC2)n1)NCCOC1CCCCCC1` are -6% and 1.05.
On to `CCCNC(=O)c1cc(C)c(CC)s1`, for which the “% Inhibition” value was -16% and the Z score came to 1.51.
Consider `O=C(C1CCOCC1)N1CCC[C@H](CCc2ccccc2)C1`, for which the “% Inhibition” value was found to be 1% and the Z score is -0.09.
For `CCOC(=O)c1cc(C2CC2)nc2c1c(=O)n(CC(=O)N1CCCC[C@@H]1C)c(=O)n2C` the same measures were -10% and 1.45.
For `CN(CC(=O)Nc1ccc(-n2cnnn2)cc1)c1nc2c(Cl)cccc2s1`, the “% Inhibition” value is listed as -11% and the Z score was 2.16.
In the case of `COC(=O)N(C)CCCC(=O)Nc1ccccc1-c1ncco1`, the “% Inhibition” value is -3% and the Z score is 0.42.
For `CCCS(=O)(=O)N1C[C@H](C(=O)NCCc2ccncc2)C2(CCOCC2)C1` the same measures were -3% and 0.57.
With `Cc1ccc(C(=O)N2CCC(n3cc(N(C)C)cn3)CC2)c(Cl)c1`, the “% Inhibition” value is listed as -4% and the Z score is recorded as 0.48.
With `COc1cccc(Cn2cccc(NC(=O)[C@@]3(C)CC3(F)F)c2=O)n1`, the “% Inhibition” value is recorded as 0% and the Z score is reported as -0.09.
With `COc1ccc(Nc2nc(C)c(NC(=O)c3ccccc3)c(Nc3ccc(OC)cc3)n2)cc1`, the “% Inhibition” value is on record as -12% and the Z score was found to be 2.3.
The corresponding values for `CN(CC1(CO)CCCC1)C(=O)c1ccc(CCC(C)(C)O)cc1` are -15% and 2.19.
Regarding `CCn1ccc([C@H](C)NC(=O)c2cc(-c3ccc(OC)cc3)nc3c2c(C)nn3C)n1`, the “% Inhibition” value turned out to be 38% and the Z score is on record as -1.08.
As for `C[C@H](O)CN1CC2(CCC1=O)CCN(C(=O)c1ccc(CO)o1)CC2`, the “% Inhibition” value turned out to be 2% and the Z score is reported as -0.39.
The corresponding values for `CC(C)c1nsc(CN2CCN(C(=O)CO)CC2)n1` are -2% and 0.34.
For `Cc1ccc(CN2C(=O)N[C@]3(CCCN(C(=O)c4cc5ccccc5[nH]4)C3)C2=O)cc1` the same measures were 4% and -0.54.
On to `O=C(CCC(F)(F)F)NCc1cncn1C1CC1`, for which the “% Inhibition” value is recorded as -12% and the Z score is on record as 1.3.
Consider `CCNC(=O)Nc1ccc2c(c1)CN(S(=O)(=O)c1ccc3c(c1)CCC3)CCO2`, for which the “% Inhibition” value came out at 4% and the Z score is recorded as -0.8.
Take `CCNS(=O)(=O)c1ccc2c(c1)N(CC(C)(C)CCC#N)CC2`: the “% Inhibition” value was -44% and the Z score is 5.2.
The corresponding values for `CC(=O)N1CCN(c2nc3c(s2)C[C@@H](C(=O)NCc2ccc(C)cc2)CC3)CC1` are 34% and -3.86.
`COc1cc2c(cc1OC)[C@@]1(Nc3c-2c(-c2ccccc2)nn3-c2ccccc2)C(=O)Nc2ccccc21`: the “% Inhibition” value stood at 8% and the Z score is -0.96.
The corresponding values for `Cc1csc2c(N[C@H]3CCCN(CCO)C3=O)ncnc12` are -18% and 1.87.
In the case of `Cc1cc(C(=O)O)nc(NCC2(N(C)C)CCCCC2)n1`, the “% Inhibition” value is -1% and the Z score is recorded as 0.13.
As for `COc1ccc([C@@]2(CC(=O)N3CCN(Cc4nccn4C)CC3)CC(=O)N(C3CCCC3)C2=O)cc1`, the “% Inhibition” value was found to be 13% and the Z score was -1.81.
`COc1ccc(C)cc1-n1cc(C(=O)N(C)c2cccc(C)n2)ccc1=O`: the “% Inhibition” value was 0% and the Z score is given as -0.04.
For `Cn1cccc1C(=O)N[C@@H]1CN(c2ncccn2)C[C@H]1CO` the same measures were -11% and 2.05.
For `Cc1cc(NC(=O)Cn2c(=O)n(CC3CCC(C(=O)NCCc4ccccc4)CC3)c(=O)c3ccccc32)n[nH]1` (stereo unspecified) the same measures were -12% and 1.88.
For the compound `C[C@@H](C1CC1)n1cc(NC(=O)Nc2scnc2C2CC2)cn1`, the “% Inhibition” value came to 3% and the Z score is on record as -0.45.
For `CCOC(=O)CCC(=O)N1CCN(c2nc(Cc3ccc(C)cc3)nc3c2c(C)nn3-c2ccccc2)CC1` the same measures were -12% and 1.15.
As to `c1ccc(-c2nc(-c3cnccn3)no2)c(COC2CCOCC2)c1`, the “% Inhibition” value is on record as -20% and the Z score is listed as 1.81.
For `COc1cc(C(=O)N2CCCc3ccnc(N(C)C)c32)ncn1` the same measures were -13% and 2.02.
For `Cc1cc(C(=O)N2CCn3c(nn(CC(C)C)c3=O)[C@H]2c2ccccc2)c(C)o1` the same measures were 4% and -0.61.
For `c1cc(C2CCCC2)nc(NCc2noc(C3CCCC3)n2)n1` the same measures were -7% and 1.21.
As for `Cc1ccc(C(=O)Nc2cc(C(=O)NC3CCCCC3)ccc2Cl)cc1C`, the “% Inhibition” value is given as -25% and the Z score turned out to be 2.95.
The corresponding values for `Cc1csc([C@@H]2CCCN2C(=O)Nc2ccn(C)c(=O)c2)n1` are -12% and 1.38.
Turning to `C[C@H]1Cc2cc(S(=O)(=O)N(C3CC3)C3COC3)ccc2O1`, the “% Inhibition” value is given as -14% and the Z score is 2.2.
In the case of `CCCc1ccc(-c2nc3c(cnn3CC)[nH]2)o1`, the “% Inhibition” value is given as -9% and the Z score is 1.57.
As for `CCN1C(=O)C2(CCN(S(=O)(=O)c3ccc(C)c(F)c3)CC2)c2ccccc21`, the “% Inhibition” value is given as -8% and the Z score turned out to be 1.28.
The corresponding values for `CCCc1cc(C(=O)N2CCN(CC=C(C)C)[C@@H]3CS(=O)(=O)C[C@@H]32)[nH]n1` are -2% and 0.24.
In the case of `Nc1ccc(CNC2CCCCC2N2CCOCC2)cn1` (stereo unspecified), the “% Inhibition” value is given as -4% and the Z score is on record as 0.48.
For `CCN(CC)S(=O)(=O)c1ccc2c(c1)cc(C(=O)N1CCCC1)n2C` the same measures were -13% and 1.87.
On to `Brc1ccccc1C1(CNCc2ncc[nH]2)CC1`, for which the “% Inhibition” value is reported as -13% and the Z score is listed as 1.96.
In the case of `CCc1n[nH]c(NS(=O)(=O)c2cccnc2C(F)(F)F)n1`, the “% Inhibition” value is given as -13% and the Z score was 1.23.
The corresponding values for `CCNC(=O)c1ccc(NC(=O)N2CCC3CCC(C2)N3C)cc1` (stereo unspecified) are -3% and 0.53.
For the compound `CS(=O)(=O)N1CCC[C@H]1C(=O)NCCc1nc2ccccc2o1`, the “% Inhibition” value is listed as -5% and the Z score turned out to be 1.04.
The corresponding values for `CC(C)[C@H]1CN(Cc2ccc3cccc(Cl)c3n2)C[C@@H]1N(C)C` are -1% and 0.21.
The corresponding values for `CC(C)n1nccc1NC(=O)CCOc1ccccc1` are -4% and 0.55.
As for `CC[C@H](Oc1ccccc1C)c1nnc(C2(c3ccccc3)CCC2)o1`, the “% Inhibition” value is given as -10% and the Z score came to 1.18.
On to `Cc1cccc(CN2C[C@@H](c3noc(-c4ccccn4)n3)CC2=O)c1`, for which the “% Inhibition” value worked out at 33% and the Z score is recorded as -4.27.
For `CCC(CC)N(CC)C(=O)c1ccc(C(=O)O)cc1F` the same measures were -12% and 1.91.
For `Cc1nnsc1C(=O)Nc1nc(-c2ccsc2)ns1` the same measures were 5% and -0.64.
As to `CCOC(=O)c1sc(=S)n(CC)c1NC(=O)c1ccccc1Cl`, the “% Inhibition” value was 12% and the Z score is given as -1.48.

What is called % Inhibition is the change of the read-out against control, counted positive when it falls.

For the origin of these results see ChEMBL document CHEMBL4888484, “Replenishing the malaria drug discovery pipeline: Screening and hit evaluation of the MMV Hit Generation Library 1 (HGL1) against asexual blood stage Plasmodium falciparum ,using a nano luciferase reporter read-out” (2022).
